Measurements taken from PubChem BioAssay AID1159614 (National Center for Advancing Translational Sciences (NCATS), 2016).
The whole screen tested about 45,000 compounds, of which about 65 (0.1%) were called active. Calls come from the whole dose curve; as a rule, active = well fitted activation curve with a large enough effect; inconclusive = small, poorly fitted or top-dose-only effect; inactive = no such curve, though single readings can be large or run the other way. Some of the results follow.

Each molecule was assayed against Galactocerebrosidase (Homo sapiens) (UniProt P54803) (assay: A Novel Cell-Based Assay to Identify Small Molecules for B -Galactocerebrosidase). Conditions: 145M-Twi-hGALC-G270D cells (Twitcher mouse brain line with human GALC G270D), HMU-beta-Gal fluorescence, 48 h; series mostly up to 57.5 µM; activation: at the top concentration.
UniProt P54803, sequence (P54803 whole entry, looked up): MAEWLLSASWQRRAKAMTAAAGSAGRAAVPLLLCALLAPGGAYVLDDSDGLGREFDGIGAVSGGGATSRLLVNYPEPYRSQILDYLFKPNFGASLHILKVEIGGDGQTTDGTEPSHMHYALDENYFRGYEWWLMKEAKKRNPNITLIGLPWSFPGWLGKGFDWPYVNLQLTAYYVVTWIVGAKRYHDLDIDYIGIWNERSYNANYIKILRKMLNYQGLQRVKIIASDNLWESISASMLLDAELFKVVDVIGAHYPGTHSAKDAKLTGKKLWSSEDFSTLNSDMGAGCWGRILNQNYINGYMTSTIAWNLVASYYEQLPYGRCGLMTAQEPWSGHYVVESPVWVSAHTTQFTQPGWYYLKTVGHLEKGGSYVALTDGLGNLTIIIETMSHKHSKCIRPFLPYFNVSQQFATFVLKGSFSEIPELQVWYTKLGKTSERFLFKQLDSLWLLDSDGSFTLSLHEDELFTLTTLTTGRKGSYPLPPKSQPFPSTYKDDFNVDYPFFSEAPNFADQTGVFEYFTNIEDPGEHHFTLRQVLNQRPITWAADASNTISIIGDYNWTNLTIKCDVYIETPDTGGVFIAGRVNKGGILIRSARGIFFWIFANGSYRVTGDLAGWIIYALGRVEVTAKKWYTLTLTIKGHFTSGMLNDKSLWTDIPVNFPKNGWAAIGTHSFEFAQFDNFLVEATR
Summary of the method: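 Fluorogenic HMU-b-Gal hydrolysis (0.1 mM final, pH 5.2 citrate-phosphate with 1 mg/mL sodium taurocholate; carbonate stop buffer) measures mutant GALC activity after compound treatment of live 145M-Twi Twitcher brain cells stably carrying human GALC-G270D, with wild-type GALC line alongside; activation sought.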
Note: 0% is about no effect; nearly all actives have a fitted effect of over 65% in size.

activation, inactive:
Cc1c(C(=O)NCCc2ccc(Cl)cc2)sc2nc3n(c(=O)c12)CCCC3 -14.6%, CC(C)C(=O)NCC(c1ccc2c(c1)OCO2)N1CCN(c2ccccc2)CC1 (centres undefined) -12.9%, Cc1ccccc1CN1c2ccccc2-c2nc(SCC(=O)NCc3ccccc3)ncc2S1(=O)=O -4.91%, CCN1CCCC1CN (centres undefined) -11.5%, O=C(Nc1c(C(=O)N2CCN(c3ccccc3)CC2)oc2ccccc12)c1ccco1 -15%, Cc1cccc(-c2noc(CSc3nc(-c4ccc(F)cc4)cc(=O)[nH]3)n2)c1 -6.85%, COc1ccc(CCNC(=O)C(=O)NCC(c2ccc3c(c2)OCO3)N2CCOCC2)cc1OC (centres undefined) -8.85%, Cc1cccn2c(=O)c(C(=O)NCCc3ccccc3)c(O)nc12 -20.6%, Cc1ccc2nc(CNC(=O)c3ccccc3)[nH]c2c1 4.45%, CCOc1ccc(NC(=O)c2oc3ccccc3c2NC(=O)c2c(F)cccc2F)cc1 -7.67%, Cc1ccc(CSC2=Nc3ccccc3C3=NC(CC(=O)NC4CCCCC4)C(=O)N23)cc1 (centres undefined) -9.34%, CCCN(CCC)S(=O)(=O)c1ccc2c(c1)N(CC(=O)NC(C)c1ccccc1)C(=O)CS2 (centres undefined) -8.8%, COc1ccc(CNC(=O)c2cc(Nc3ccc(C)cc3C)nc3ccccc23)cc1 -10.4%, Cc1ccc(NC(=O)C(=O)c2cc(C)n(-c3ccc(F)cc3)c2C)cc1C -8.46%, CCOc1ccc(NC(=O)C2CCCN(S(=O)(=O)c3ccc4[nH]c(=O)ccc4c3)C2)cc1 (centres undefined) -1.53%, COc1ccccc1N1CCN(C(=O)CSc2nc3ccccc3nc2Cc2ccccc2)CC1 -15.9%, COc1cccc(-n2ccn(CC(=O)c3ccc(F)cc3)c(=O)c2=O)c1 -23.9%, CC(=O)c1ccc(N2C(=O)N(CC(=O)c3ccc(C)cc3)c3ccccc3S2(=O)=O)cc1 -3.49%, CCN(c1cccc(C)c1)S(=O)(=O)c1nnc(NC(=O)c2ccccc2Cl)s1 -10.4%, Cc1ccc2nc(-c3ccc(NC(=O)COc4ccccc4)cc3)sc2c1 -4.67%, COc1ccccc1N1CCN(C(=O)c2cc(-c3ccc(F)cc3)on2)CC1 -3.53%, Cc1ccc(OCCn2nnc3sc4c(c3c2=O)CCC(C)C4)cc1 (centres undefined) -6%, CCc1c(-c2ccccc2)nc2ccccc2c1C(=O)NCc1ccc(C)cc1 -6.49%, CN(C1CCCCC1)S(=O)(=O)c1ccc2c(c1)c(=O)c(C(=O)N1CCN(c3ccccc3F)CC1)cn2C -16.1%, CCOc1ccc(C(=O)N2CCC(c3noc(-c4ccc(S(=O)(=O)N5CCCC5)cc4)n3)CC2)cc1 2.47%, Cc1cc(C)cc(NS(=O)(=O)c2ccc3[nH]cc(C(=O)NCc4ccccc4Cl)c(=O)c3c2)c1 2.18%, O=C(CSc1nnc(-c2ccc([N+](=O)[O-])cc2)o1)Nc1ccccc1 -13%, Cc1ccc(-c2nc(Cn3c(=O)cc(-c4ccccc4)c4c(C)nn(C)c43)c(C)o2)cc1 -20.1%, COc1cc(NC(=O)Cn2c(=O)n(Cc3ccco3)c(=O)c3oc4ccccc4c32)cc(OC)c1 -1.87%, CSc1cccc(NS(=O)(=O)c2cn(C)c(C)n2)c1 -21.8%, Cn1cnc(S(=O)(=O)N2CCC(C(=O)N3CCN(c4ccccc4F)CC3)CC2)c1 -15.4%, CCOc1ccc(NC(=O)c2cc(=O)c3ccc(C)c(C)c3o2)cc1 -14.2%, O=C(Nc1ccc(Br)cc1F)N1CCC2(CC1)Oc1ccccc1C(=O)N2Cc1ccccc1F -6.71%, CCN(c1ccccc1)c1nnc(NC(=O)Nc2ccc(Br)cc2F)s1 -18.6%, O=C1CSC2(C(=O)N(Cc3ccccc3)c3ccccc32)N1c1ccc(Cl)cc1 (centres undefined) -8.61%, COc1ccc2occ(CC(=O)Nc3ccc(S(=O)(=O)Nc4nc(C)cc(C)n4)cc3)c2c1 -13%, COc1ccc(C2C(C(=O)Nc3ccc(C)cc3C)=C(C)Nc3nc4ccccc4n32)c(OC)c1 (centres undefined) -4.61%, CCOc1ccc2c(c1)NC(c1cccs1)=NC(c1ccc(F)cc1)=N2 -11.2%, O=C(CN1C(=O)COc2ccc(S(=O)(=O)Nc3ccccc3)cc21)Nc1cccc(Cl)c1 -11.8%, COc1cccc2c1Oc1ncccc1N(C(=O)CCC(=O)NCc1ccccc1Cl)C2 -6.09%, COC(=O)c1ccc(Cn2nnc3c(=O)[nH]c(C4CCCN(S(=O)(=O)c5cccc(Cl)c5)C4)nc32)cc1 (centres undefined) -8.32%, COC(=O)c1cc(NC(=O)Cn2nc(-c3ccc(C)c(C)c3)ccc2=O)cc(C(=O)OC)c1 -18.6%, CCC(C)NC(=O)C1=CC(c2ccc3c(c2)OCO3)=NS(=O)(=O)N1C (centres undefined) -8.88%, CC(C)(C)c1ccc(C(=O)N2CCCCC2CCN2CCCCC2)cc1 (centres undefined) -10%, CC(=O)c1ccc(NC(=O)CC(c2cccs2)N2Cc3ccccc3C2=O)cc1 (centres undefined) -17.9%, COc1ccc(Cc2nc3ccccc3n2Cc2ccccc2F)cc1 -4.56%, CCN(C(=O)Cn1cnc2sc(C)c(S(=O)(=O)N3CCN(c4ncccn4)CC3)c2c1=O)c1ccccc1F -13.3%, CCOc1ccc(-c2cc(-c3nc(-c4ccc(OC)c(OC)c4)no3)[nH]n2)cc1 -17.8%, Cc1ccccc1CSc1ncc(CO)n1Cc1ccc(F)cc1 -12.7%, COc1ccc(-c2nnc(C3CCN(S(=O)(=O)c4ccc(C)c(C)c4)CC3)o2)cc1 -0.43%, Cc1ccc(-n2ncc(C(=O)N3CCN(c4ccc(Cl)cc4)CC3)c2C2CCN(C(=O)OC(C)(C)C)CC2)c(C)c1 -15.8%, CCOC(=O)c1ccc(NC(=O)c2ccc(=O)n(Cc3cccc(C)c3)c2)cc1 -31.2%, CC(O)CNc1nc2c(c(=O)n(Cc3ccc(Cl)cc3)c(=O)n2C)n1C (centres undefined) 6.52%, COc1ccc(CCNC(=O)CCc2c(C)c3cc4c(C)coc4c(C)c3oc2=O)cc1OC 6%, COc1ccc(-c2cn3cccnc3n2)cc1NC(=O)c1cc(C)cc(C)c1 -14.6%, Cc1cc(Cl)ccc1OCC(=O)N(Cc1ccco1)Cc1ccco1 1.99%, CCC1CN(C(=O)Nc2ccc(C)c(F)c2)c2ccccc2S1 (centres undefined) -5.84%, Cc1cc2c(cc1S(=O)(=O)CCC(=O)NCCc1ccccc1)OCC(=O)N2 3.86%, CC(C)(C)C(=O)NC1(C(F)(F)F)C(=O)Nc2c1c(=O)[nH]c(=O)n2-c1ccccc1 (centres undefined) -13.6%, CCOc1ccc(-n2nc3cc(C)c(NC(=O)c4cc(OCC)c(OCC)c(OCC)c4)cc3n2)cc1 -13.1%, Cc1nnc(N2CCC(C(=O)NCCc3ccccc3)CC2)c2nn(-c3ccc(Cl)cc3)c(C)c12 -4.01%, COc1cc(OC)c(NS(=O)(=O)c2cc(-c3cnc(C4CC4)o3)ccc2C)cc1Cl -8.06%, CCOc1ccc(-c2nnc(SCC(=O)NCc3ccccc3)o2)cc1 -4.77%, O=C1CN(C(=O)c2ccc(S(=O)(=O)N3CCCC3)cc2)C(c2ccccc2)c2cc(Br)ccc2N1 (centres undefined) -15%, Cc1ccc(NC(=O)CN2CCSc3ccc(S(=O)(=O)N4CCCC4)cc32)cc1C -39%, Cc1ccc(-n2ncc3c(Nc4cccc(Cl)c4)ncnc32)c(C)c1 -13.9%, O=C(Cn1nnnc1-c1ccccc1F)Nc1ccc(OC(F)(F)F)cc1 4.68%, CCOC(=O)c1c(C)n(-c2ccc(OC)cc2)c2ccc(OC(=O)COc3ccccc3)cc12 -14.7%, COc1ccc(CNC(=O)CCc2c(C)nc3c(c(C)nn3-c3ccccc3)c2C)cc1 -17.4%, CCN(Cc1ccccc1)C(=O)C1CCN(S(=O)(=O)c2ccc3c(c2)CCCN3C(C)=O)CC1 -18.2%, O=C(CSc1nccn1Cc1ccc(F)cc1)Nc1nc2ccccc2s1 -34.1%, CN(C)CC/C=C1\c2ccccc2Sc2ccc(Cl)cc21 -1.24%, c1ccc([C@H]2CN3CCSC3=N2)cc1 -4.66%, COc1cc(NC(=O)C2=CC(c3ccc(F)cc3)=NS(=O)(=O)N2C)cc(OC)c1OC -8.46%, CCN(CC)c1cc(C)c2cc(NC(=O)/C=C/c3cc(OC)c(OC)c(OC)c3)ccc2n1 -21.3%, CC(C)c1nnc(N2C(=O)c3oc4ccccc4c(=O)c3C2c2ccccc2F)s1 (centres undefined) -12.2%, COc1ccc(-n2nc(C(=O)N3CCCCC3C)c3c4ccccc4n(C)c3c2=O)cc1Cl (centres undefined) -9.32%, N#Cc1ccc(-c2cccs2)nc1SCc1ccc(Br)cc1 -14%, CCOC(=O)c1ccc(NC(=O)Cn2c(=O)cc(C)c3c(C)nn(-c4ccc(CC)cc4)c32)cc1 -3.06%, CC(C)N(C(=O)CSc1cn(CC(=O)N2CCCCCC2)c2ccccc12)C(C)C -15.4%, Cc1coc2c(C)c3oc(=O)c(CCC(=O)NCCc4ccccc4F)c(C)c3cc12 -9.15%, COc1cccc(C(=O)Nc2ccccc2C(=O)OCc2cc(=O)n3c4c(sc3n2)CCCC4)c1 -23.9%, COc1ccc(CNC(=O)CN(C)S(=O)(=O)c2ccc3nc(C)sc3c2)cc1 -6.34%, Cc1cccc(CC(=O)N2CC(=O)Nc3ccc(Br)cc3C2c2ccc(F)cc2)c1 (centres undefined) -22%, CCc1cccc(-n2nnc(-c3nsc(NC(=O)c4cccc(OC)c4)n3)c2C)c1 -4.05%, O=C(Cn1ncc2c3ccccc3n(Cc3ccccc3F)c2c1=O)NCc1ccccc1Cl -7.04%, Cc1cc2c(cc1S(=O)(=O)Nc1cccc(C#N)c1)OCC(=O)N2 -4.89%, CN(Cc1ccccc1)C(=O)c1ccc(CSc2nc3cccnc3n2Cc2ccccc2F)cc1 -13.8%, COc1ccc(NC(=O)Cn2c(=O)n(CCC(=O)NCC3CCCO3)c(=O)c3cc(OC)c(OC)cc32)cc1 (centres undefined) -19.1%, COc1ccccc1Nc1sc(C(=O)c2ccc(F)cc2)c(N)c1S(=O)(=O)c1ccc(C)cc1 -15.7%, COc1ccc(Br)cc1S(=O)(=O)Nc1cc(-c2cn3ccccc3n2)ccc1C -12.7%, CCOc1ccc(CCNC(=O)c2cn(-c3ccc(OC)cc3)c(=O)c3ccccc23)cc1OCC 1.9%, CCOc1ccc(CNC(=O)C2CCCN(c3nnc(C)c4c(C)n(-c5ccccc5)nc34)C2)cc1 (centres undefined) -11.8%, CCOc1cc(C2NC(=O)c3c(sc4c3CCN(C)C4)N2)ccc1OC(=O)c1ccc(Br)cc1 (centres undefined) 4.37%
